# Experimental data as given in article PMC4336329 (PLoS ONE, 2015).
# Among all 310,000 compounds or so, about 14,000 (4.5%) showed an effect of 50% or more. The effect is printed as a negative number. This is one part of the list.
# Biological target: human ether-à-go-go-related gene (hERG) potassium channel (human, UniProt Q12809)
# Assay: primary screen, population patch clamp on CHO cells stably expressing hERG
# 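Note: peak tail current of the secondary pulse compared with the same well before compound.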
# human ether-à-go-go-related gene (hERG) potassium channel, sequence (Q12809 whole entry, looked up): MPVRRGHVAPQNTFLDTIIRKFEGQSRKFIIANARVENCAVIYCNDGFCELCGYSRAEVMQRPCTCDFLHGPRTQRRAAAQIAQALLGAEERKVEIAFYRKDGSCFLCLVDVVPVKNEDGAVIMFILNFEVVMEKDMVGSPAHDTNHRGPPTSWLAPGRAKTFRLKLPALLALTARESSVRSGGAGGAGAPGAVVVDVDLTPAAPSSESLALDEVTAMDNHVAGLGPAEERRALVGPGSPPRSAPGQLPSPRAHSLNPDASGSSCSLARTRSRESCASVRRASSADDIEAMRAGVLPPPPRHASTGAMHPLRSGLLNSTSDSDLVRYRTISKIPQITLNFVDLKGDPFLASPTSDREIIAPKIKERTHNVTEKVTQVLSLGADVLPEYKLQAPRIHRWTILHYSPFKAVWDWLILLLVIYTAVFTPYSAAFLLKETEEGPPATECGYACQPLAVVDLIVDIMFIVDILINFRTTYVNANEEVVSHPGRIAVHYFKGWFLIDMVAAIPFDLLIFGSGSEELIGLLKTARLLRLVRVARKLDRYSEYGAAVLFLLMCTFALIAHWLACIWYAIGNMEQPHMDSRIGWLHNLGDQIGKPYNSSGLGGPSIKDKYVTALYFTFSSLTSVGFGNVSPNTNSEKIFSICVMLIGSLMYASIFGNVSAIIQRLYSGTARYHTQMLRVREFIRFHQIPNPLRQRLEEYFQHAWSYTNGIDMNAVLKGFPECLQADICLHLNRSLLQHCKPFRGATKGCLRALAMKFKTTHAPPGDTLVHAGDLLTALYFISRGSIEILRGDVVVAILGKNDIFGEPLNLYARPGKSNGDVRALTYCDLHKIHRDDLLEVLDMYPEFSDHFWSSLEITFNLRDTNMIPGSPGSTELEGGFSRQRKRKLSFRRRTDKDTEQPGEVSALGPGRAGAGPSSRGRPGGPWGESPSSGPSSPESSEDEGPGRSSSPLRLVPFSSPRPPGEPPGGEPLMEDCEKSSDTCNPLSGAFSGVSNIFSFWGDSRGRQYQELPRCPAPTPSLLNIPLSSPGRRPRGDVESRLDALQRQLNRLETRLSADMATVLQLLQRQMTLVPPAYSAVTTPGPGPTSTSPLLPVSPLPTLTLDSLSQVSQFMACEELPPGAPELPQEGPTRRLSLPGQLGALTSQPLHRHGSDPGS
row,Compound,"hERG current change (%, negative = inhibition) at 10uM [%]"
1,NC(=O)NN=C1C2CCCC1C(c1ccccc1)NC2c1ccccc1 (centres unmarked),-7.17
2,Cc1cccc(CSC2=NCCN2C(=O)c2ccc(S(=O)(=O)N(C)C)cc2)c1,7.62
3,Cc1nc(C/C(=N\Nc2ccccc2)c2ccc(O)cc2O)cs1,-3.9
4,CCN(CC)CCP(=O)(c1ccccc1)c1ccccc1,-15.2
5,CC(C)(C)CN1CCNC(=O)C1CC(=O)NCCc1cnn(-c2ccccc2)c1 (centres unmarked),-0.753
6,Cc1ccc(/C=C(\C#N)c2nn(-c3ccccc3)c(N)c2C#N)cc1,-21.1
7,COc1cccc(CN(C)C(=O)[C@@H](NC(=O)c2ccc(C)cc2)C(C)C)c1,-18.4
8,CN(C(=O)CSc1nnc(-c2ccncc2)n1-c1ccccc1)C1CCS(=O)(=O)C1 (centres unmarked),7.61
9,O=C(CN1CCN(CCC(=O)Nc2ccccc2F)CC1)Nc1ccc(Cl)cc1,-76.8
10,Cc1cc(NC(=O)CCC(=O)N(CC(=O)NC2CCCC2)Cc2ccc3c(c2)OCO3)no1,6.12
11,Cc1c(C(=O)N/N=C/c2cccc(O)c2)nnn1-c1nonc1N,4.88
12,O=C(CSc1nnc(-c2ccccc2O)o1)Oc1ccc(Br)cc1,5.91
13,Fc1cccc(Cl)c1CSc1nnc(CNc2ccccc2)o1,-21.5
14,CCOC(=O)C(C)Sc1nc2c(c(-c3cccs3)c1C#N)CCC2 (centres unmarked),-8.45
15,COc1ccc(OC)c(CNC(=O)C(C)n2nc(C)c3c(C)n(-c4ccccc4)nc3c2=O)c1 (centres unmarked),-7.41
16,COc1ccc(CNC(=O)Cc2csc(NC(=O)Nc3ccccc3OC)n2)cc1,-2.11
17,CCC(C)(C)NC(=O)C(c1ccc(F)cc1)N(Cc1ccco1)C(=O)c1snc(C(N)=O)c1N (centres unmarked),-7.32
18,CCCCn1c(N)c(N(CC)C(=O)c2ccco2)c(=O)[nH]c1=O,14.7
19,CC(OC(=O)CN1C(=O)c2ccccc2C1=O)C(=O)NC1CCCCC1 (centres unmarked),8.5
20,O=C(CN(Cc1ccc(Cl)cc1)C(=O)CNS(=O)(=O)c1ccc(F)cc1)NCC1CCCO1 (centres unmarked),-15.2
21,CCOC(=O)c1ccc(NC(=O)C2CC2)cc1,-18.4
22,O=C1c2ccccc2C(=O)N1CCc1csc(-c2cccc(Cl)c2)n1,-16.5

row,Compound,"hERG current change (%, negative = inhibition) at 10uM [%]"
1,COc1ccc(Cc2noc(CN(C)Cc3cccc(-n4cccn4)c3)n2)cc1OC,-13.5
2,CCC(C(=O)NCCCN1CCN(C)CC1)n1nc(C)n2c(cc3occc32)c1=O (centres unmarked),17.1
3,Cn1c(=Nc2ccccc2)sc2ccccc21,-13.4
4,COc1ccc(-n2nnnc2SCC(=O)Nc2nnc(C)s2)cc1,0.313
5,Cc1c(C(=O)OCC(=O)NCCc2ccc(S(N)(=O)=O)cc2)oc2ccccc12,19.4
6,CC(=O)c1cc(OC(=O)c2ccncc2)ccc1OC(=O)c1ccncc1,3.9
7,Cc1ccc(/C=N/n2c(-c3ccc(Cl)cc3)n[nH]c2=S)s1,8.02
8,COc1ccc(C(=O)CSc2nnc(-c3ccccn3)n2Cc2ccco2)cc1,-20.2
9,COc1ccc(CNC(=O)C2CCN(S(=O)(=O)c3cc(OC)ccc3OC)CC2)cc1,-11
10,O=C(CSc1nnnn1C1CCCC1)Nc1ccc2c(c1)OCCO2,6.01
11,CC(/C=N/Nc1ccc2nncn2n1)=C\c1ccccc1,-51.8
12,O=C(Nc1ccccc1Cl)C1CCCN(S(=O)(=O)c2ccc(-n3cnnn3)cc2)C1 (centres unmarked),0.0853
13,O=C(Nc1ccncc1)C1CCN(S(=O)(=O)c2ccc(Cl)c(C(F)(F)F)c2)CC1,-69.9
14,CC(C)(C)N1C(=O)c2ccccc2NC(=O)N1Cc1ccc(Br)cc1,5.07
15,CC(C)c1nc(SCC(=O)Nc2ccc([N+](=O)[O-])cc2Br)n[nH]1,-30.3
16,O=[N+]([O-])c1ccc(Sc2nc3ccccc3o2)c([N+](=O)[O-])c1,20.1
17,O=C(CN1C(=O)NC2(CCc3ccccc32)C1=O)c1ccc(Cl)cc1 (centres unmarked),-17
18,CN1CCN(C2=C(Cl)C(=O)N(c3cccc(Cl)c3)C2=O)CC1,4.54
19,CC(C)(C)C(=O)Nc1nc(-c2ccccc2)ns1,-8.35
20,COC(C/C=C\[C@@H](O)[C@H](C)OCc1ccccc1)OC,25.7
21,COc1ccc(OC)c(NC(=O)C(CC(=O)O)Cc2ccc(Cl)cc2)c1 (centres unmarked),6.05
22,COC(=O)Cc1[nH]c(=S)[nH]c1C(=O)OC,6.22
